Measurements taken from PubChem BioAssay AID1030 (National Center for Advancing Translational Sciences (NCATS), 2008).
The campaign covered roughly 220,000 compounds. About 16,000 (7.3%) were called active. The shares of active, inactive and inconclusive entries below differ from those in the screen. The call rests on the fitted dose curve; in most records, active means well fitted inhibition curve with a large enough effect (not every such curve was filed as active); inconclusive means small, poorly fitted or top-dose-only effect, or another doubt; inactive means no such curve, though single readings can be large or run the other way. No potency is given beside an inconclusive call; the fits are too rough.

Biological target: Aldehyde dehydrogenase 1A1 (Homo sapiens) (UniProt P00352)
Chain of UniProt P00352 (P00352 whole entry, looked up): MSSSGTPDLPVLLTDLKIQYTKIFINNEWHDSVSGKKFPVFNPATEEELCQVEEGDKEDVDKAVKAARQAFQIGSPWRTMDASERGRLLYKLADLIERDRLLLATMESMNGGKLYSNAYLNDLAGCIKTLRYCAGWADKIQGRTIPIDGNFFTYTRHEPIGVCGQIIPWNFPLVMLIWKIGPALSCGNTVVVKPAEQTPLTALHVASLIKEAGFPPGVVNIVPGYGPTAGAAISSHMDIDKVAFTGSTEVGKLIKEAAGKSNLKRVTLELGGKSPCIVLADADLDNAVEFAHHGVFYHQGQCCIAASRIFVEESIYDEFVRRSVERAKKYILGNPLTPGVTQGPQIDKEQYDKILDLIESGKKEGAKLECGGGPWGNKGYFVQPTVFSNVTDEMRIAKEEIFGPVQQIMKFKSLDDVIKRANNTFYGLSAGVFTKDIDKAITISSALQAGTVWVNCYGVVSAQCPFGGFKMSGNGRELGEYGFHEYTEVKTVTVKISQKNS
Test: qHTS Assay for Inhibitors of Aldehyde Dehydrogenase 1 (ALDH1A1);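 on activity, negative = inhibition: plate controls were no enzyme wells and a reference inhibitor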
Conditions: Purified ALDH1A1, NADH fluorescence, propionaldehyde substrate; series mostly up to 75.3 µM; activity, negative = inhibition: at the top concentration
Potency means the concentration at half of the fitted maximal effect; tags describe the fitted curve by direction and shape.

Row | Structure (SMILES) | Potency | activity, negative = inhibition
1 | COc1ccc(N2CCN(C(CNC(=O)C(=O)NCC3CCCO3)c3ccco3)CC2)cc1 (stereo not drawn) | inconclusive [inhibitor, single point] | –
2 | CC1CC(=O)Nc2ccccc2N1S(=O)(=O)c1cccc(Cl)c1 (stereo not drawn) | – | inactive: 8.24%
3 | O=C(CCCc1nc2ccccc2s1)NCc1ccccc1F | inconclusive [inhibitor, single point] | –
4 | N#C/C(=N\Nc1ccc(S(=O)(=O)N2CCCCC2)cc1)C(N)=S | active: 12.6 µM | –
5 | CCN(CC)c1ccc(C=N/C(C#N)=C(\N)C#N)cc1 | active: 11.2 µM | –
6 | Cc1nc(NCc2ccccc2)c2nc(-c3ccccc3)n(CCCN3CCOCC3)c2n1 | inconclusive [inhibitor, partial curve] | –
7 | COc1cccc(C2CCCN2Cc2nc(-c3sccc3C)oc2C)c1 (stereo not drawn) | inconclusive [inhibitor, single point] | –
8 | COc1ccc(-c2cn3cc(Cl)ccc3n2)cc1OC | inconclusive [inhibitor, single point] | –
9 | Cc1nc(CSc2nsc(C)c2C#N)cs1 | – | inactive: -15.1%
10 | COC(=O)c1[nH]c(C)c(/C(O)=C2\C(=O)C(=O)N(CCN3CCOCC3)C2c2cccnc2)c1C (stereo not drawn) | inconclusive [inhibitor, single point] | –
11 | CCN(CC)C(=O)c1sc(NC(=O)c2cccnc2)c(C(=O)OC)c1C | inconclusive [inhibitor, single point] | –
12 | Nc1nc2ccc(S(=O)(=O)c3ccc4nc(N)sc4c3)cc2s1 | inconclusive [inhibitor, partial curve] | –
13 | CN(C)S(=O)(=O)N(CC(=O)NCCSCc1ccc(Cl)cc1)c1ccccc1 | – | inactive: -3.84%
14 | COC(=O)c1ccc(C(=O)Nc2cc(Cl)ccc2Cl)cc1NC(=O)c1ccccc1C | inconclusive [inhibitor, partial curve] | –
15 | COc1ccc(OC)c(Nc2nc(=O)c3cccnc3s2)c1 | active: 2 µM | –
16 | CN(c1ccccc1C(=O)Nc1ccc(S(=O)(=O)N2CCOCC2)cc1)S(=O)(=O)c1ccccc1 | inconclusive [inhibitor, single point] | –
17 | CCc1ccc2[nH]c(=O)c(CN(Cc3ccccc3OC)Cc3nnnn3Cc3ccco3)cc2c1 | active: 25.1 µM | –
18 | COc1ccc(-c2cc(C(=O)O)no2)cc1 | active: 0.447 µM | –
19 | CCNc1ncc2nc(C)c(=O)n(CCC#N)c2n1 | inconclusive [inhibitor, partial curve] | –
20 | N#C/C(=C\c1cccn1-c1ccccc1)C(=O)NC1CCCCC1 | active: 7.08 µM | –
21 | O=C(Nc1cc(S(=O)(=O)N2CCOCC2)ccc1N1CCCCC1)c1cc(-c2ccccn2)nc2ccccc12 | active: 7.08 µM | –
22 | O=C(COC(=O)c1cnccn1)c1ccc(Cl)cc1 | – | inactive: 0.179%
23 | CCOC(=O)C(Sc1ncc(C#N)c(N)n1)C(C)C (stereo not drawn) | inconclusive [inhibitor, single point] | –
24 | CN(C)c1nc(NCc2ccccc2)nc(Oc2ccc(=O)[nH]n2)n1 | inconclusive [inhibitor, single point] | –
25 | COc1ccc(CC(=O)Nc2ccc(-c3nnc(-c4ccccc4)o3)cc2)cc1OC | active: 3.55 µM | –

Row | Structure (SMILES) | Potency | activity, negative = inhibition
26 | CCN(CC)C(=O)C1CCCN(C/C=C/c2ccccc2)C1 (stereo not drawn) | inconclusive [inhibitor, single point] | –
27 | CCOc1ccc(NC(=S)Nc2ccccc2C2(C)CC2)cc1 | – | inactive: 4.03%
28 | CCOc1cccc(C(=O)Nc2nc(-c3ccc(S(=O)(=O)N4CCOCC4)cc3)cs2)c1 | inconclusive [inhibitor, single point] | –
29 | Cc1ccc(S(=O)(=O)N2CCOCC2)cc1C(=O)c1nccn1C | active: 18.9 µM | –
30 | Clc1ccc(COn2c(-c3ccccc3)nc3ccccc32)cc1 | – | inactive: 3.13%
31 | CC(C)N(CC#CC(O)(c1ccccc1)c1ccccc1)CCO | – | inactive: -7.72%
32 | O=C(COC(=O)c1cc(S(=O)(=O)N2CCCCC2)ccc1N1CCOCC1)NC1CCCCC1 | inconclusive [inhibitor, partial curve] | –
33 | O=C(N/N=C/C=C/c1ccco1)/C(=C/c1ccccc1)NC(=O)c1ccccc1 | inconclusive [inhibitor, single point] | –
34 | Cc1ccc(C(=O)/C=C\NCc2ccccc2)cc1 | inconclusive [inhibitor, partial curve] | –
35 | CCOC(=O)C1=C(CSc2nc(-c3ccccc3)ccc2C#N)OC(N)=C(C#N)C1c1ccc(OC)cc1 (stereo not drawn) | inconclusive [inhibitor, single point] | –
36 | O=C(CCl)N(Cc1ccccc1)c1ccccc1 | active: 0.0794 µM | –
37 | COc1ccc2c(OC)cc(-c3ccccc3)nc2c1 | inconclusive [inhibitor, single point] | –
38 | Cc1cc(C(F)(F)F)nc(SCCN2CCOCC2)c1C#N | active: 22.4 µM | –
39 | COc1cccc(CNC(=O)CCC2CCCN(C(=O)c3cccc(Cl)c3)C2)c1 (stereo not drawn) | inconclusive [inhibitor, partial curve] | –
40 | c1ccc(-c2nc3c(ccc4ccccc43)[nH]2)nc1 | inconclusive [inhibitor, single point] | –
41 | COc1ccc(CCNC2CC(=O)N(CCc3ccccc3)C2=O)cc1OC (stereo not drawn) | inconclusive [inhibitor, single point] | –
42 | CCCn1c(=N)c(C#N)cc2c(=O)n3ccccc3nc21 | inconclusive [inhibitor, partial curve] | –
43 | CC1c2ccccc2CN1CC1=NCCN1 (stereo not drawn) | – | inactive: -11.2%
44 | Cc1ccc(C(=O)Nc2cc3ccccc3oc2=O)cc1 | inconclusive [inhibitor, partial curve] | –
45 | CCOc1ccc(NC(=O)c2ccc(CSc3nnc(C)s3)cc2)cc1 | – | inactive: 10.2%
46 | CCCC(=O)c1ccc(N2CCN(C(=O)c3ccccc3Br)CC2)c(F)c1 | active: 15.8 µM | –
47 | O=c1c2ccccc2oc2cc(O)c(C3COCC(CO)C(O)C(O)C3O)c(O)c12 (stereo not drawn) | inconclusive [inhibitor, single point] | –
48 | CC(=O)NC(CCS(C)(=O)=O)C(=O)Nc1cccc(C(C)=O)c1 (stereo not drawn) | inconclusive [inhibitor, single point] | –
49 | CC(=O)Nc1ccc(C2=NN(c3ccccc3)C(c3cccs3)C2)cc1 (stereo not drawn) | inconclusive [inhibitor, partial curve] | –
50 | COC(=O)C1=C(C)N(C)C(=O)NC1c1cc(Cl)cc(Cl)c1OC (stereo not drawn) | inconclusive [inhibitor, single point] | –

Row | Structure (SMILES) | Potency | activity, negative = inhibition
51 | C/C(=N\NC(=O)c1cccc(N/N=C(\C)c2ccco2)c1)c1ccco1 | inconclusive [inhibitor, single point] | –
52 | Nc1ccc(C(=O)NCc2ccccc2)cc1 | – | inactive: 11.1%
53 | Cc1ccccc1-n1nc2c(c1NC(=O)/C=C\c1ccc3c(c1)OCO3)CSC2 | inconclusive [inhibitor, single point] | –
54 | COCCOc1cc(-n2cccc2)c(Cl)cc1Cl | – | inactive: 7.04%
55 | O=C(Nc1ccncc1)c1ccc2c(c1)C(=O)N(CC1CCCO1)C2=O (stereo not drawn) | active: 5.62 µM | –
56 | O=C1N=C(N2CCCC2)S/C1=C\c1cccc(Br)c1 | active: 25.1 µM | –
57 | CC1CCN(C(=O)c2ccc3c(c2NCCO)C(=O)c2ccccc2C3=O)CC1 | inconclusive [inhibitor, single point] | –
58 | CCOc1ccc(CN(C)CCc2ccccn2)cc1 | inconclusive [inhibitor, partial curve] | –
59 | COc1cc(/C=C/C(=O)NCc2ccccn2)cc(OC)c1OC | inconclusive [inhibitor, partial curve] | –
60 | CCOC(=O)c1sc(Nc2nc3c(OC)cccc3s2)nc1C | inconclusive [inhibitor, single point] | –
61 | CCOC(=O)c1ccc(N=c2scc(C)n2CC)cc1 | inconclusive [inhibitor, single point] | –
62 | CN(C)c1ccc(C(=O)OCc2ccc(Br)cc2)cc1 | inconclusive [inhibitor, single point] | –
63 | CC(C)CNC(=O)c1ccc(COc2ccc(Cl)cc2Cl)o1 | – | inactive: -15.8%
64 | CC(C)n1cc([C@@H]2C[C@H]3CN(Cc4cccc(Cl)c4)C(=O)[C@]34CCCN24)cn1 | inconclusive [inhibitor, single point] | –
65 | NC(=S)N/N=C/c1ccc(-c2cc(Cl)ccc2Cl)o1 | inconclusive [inhibitor, partial curve] | –
66 | CC1(C)Cc2cccc(OCC(N)=O)c2O1 | – | inactive: 14.2%
67 | Cc1nc(CCNC(=O)CC2C(=O)NCCN2Cc2ccc(F)cc2)sc1C (stereo not drawn) | inconclusive [inhibitor, single point] | –
68 | CCNC(=S)N/N=C(\C)c1ccc2c(c1)OCCO2 | inconclusive [inhibitor, full curve] | –
69 | CCN(CC)c1ccc(C(=O)Nc2ccccc2)cc1[N+](=O)[O-] | inconclusive [inhibitor, single point] | –
70 | O=C(NCCN1C(=O)C2C3C=CC(C3)C2C1=O)Nc1ccccn1 (stereo not drawn) | inconclusive [inhibitor, single point] | –
71 | O=C(COC(=O)CCc1nc2ccccc2n1-c1ccccc1)Nc1ccc(N2CCCCC2)cc1 | – | inactive: 5.72%
72 | COc1cc(C(C[N+](=O)[O-])c2c(C)[nH]c3ccccc23)cc(OC)c1OC (stereo not drawn) | inconclusive [inhibitor, single point] | –
73 | c1ccc(-c2csc(-c3cccnc3)n2)cc1 | inconclusive [inhibitor, single point] | –
